Results published in the supplement of paper PMC4604168 (melanoma cell lines).
Some of the results follow. Many values rest on one well or one pass, so single values are uncertain.

What was measured:
Assay in all cases: cell count relative to DMSO control; melanoma cells; higher = more viable cells
Settings in all cases: library dose: standard library concentration; 72 h
G361 = tested on: G361
IPC-298 = tested on: IPC-298
IST-MEL1 = tested on: IST-MEL1
LOXIMVI = tested on: LOXIMVI
MEL-HO = tested on: MEL-HO
MeWo = tested on: MeWo
RPMI7951 = tested on: RPMI7951
RVH-421 = tested on: RVH-421
SkMel28 = tested on: SkMel28
SkMel30 = tested on: SkMel30
SkMel5 = tested on: SkMel5
UACC257 = tested on: UACC257
UACC62 = tested on: UACC62
WM115 = tested on: WM115
WM1716 = tested on: WM1716
WM3526 = tested on: WM3526
SkMel2 = tested on: SkMel2
WM1745 = tested on: WM1745
LB2518-MEL = tested on: LB2518-MEL
MZ2-MEL = tested on: MZ2-MEL
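Also: cells treated in 1,536-well plates, then fixed and DAPI-stained, with nuclei counted from automated high-throughput microscope images.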

Cc1cc(Nc2cc(N3CCN(C)CC3)nc(Sc3ccc(NC(=O)C4CC4)cc3)n2)n[nH]1 [Tozasertib] + CC(C)CCN1c2nc(Nc3cc(F)c(O)c(F)c3)ncc2N(C)C(=O)C1C [BID1870] (first compound 0.03 µM, partner dose 1 µM)
cell count (G361): 72.9% | cell count (IPC-298): 79.5% | cell count (IST-MEL1): 79.7% | cell count (LOXIMVI): 90.8% | cell count (MEL-HO): 77.5% | cell count (MeWo): 65.3% | cell count (RPMI7951): 68.2% | cell count (RVH-421): 82% | cell count (SkMel28): 48% | cell count (SkMel30): 90.9% | cell count (SkMel5): 71.5% | cell count (UACC257): 97% | cell count (UACC62): 72% | cell count (WM115): 49% | cell count (WM1716): 89.3% | cell count (WM3526): 68%

N#CC[C@H](C1CCCC1)n1cc(-c2ncnc3[nH]ccc23)cn1 [ruxolitinib] + NC(=O)c1ccc(N(C(N)=O)c2c(F)cccc2F)nc1-c1ccc(F)cc1F [VX702] (first compound 5 µM, partner dose 2 µM)
cell count (G361): 70% | cell count (IPC-298): 95.5% | cell count (IST-MEL1): 97.4% | cell count (LOXIMVI): 120% | cell count (MEL-HO): 87.6% | cell count (MeWo): 88% | cell count (RPMI7951): 96% | cell count (RVH-421): 88.1% | cell count (SkMel28): 102% | cell count (SkMel2): 111% | cell count (SkMel30): 91.7% | cell count (SkMel5): 78.7% | cell count (UACC257): 109% | cell count (UACC62): 103% | cell count (WM115): 87.8% | cell count (WM1716): 102% | cell count (WM1745): 81.5% | cell count (WM3526): 128%

Cc1cc(Nc2cc(N3CCN(C)CC3)nc(Sc3ccc(NC(=O)C4CC4)cc3)n2)n[nH]1 [Tozasertib] + Cc1cc(Nc2cc(N3CCN(C)CC3)nc(/C=C/c3ccccc3)n2)n[nH]1 [ENMD2076] (first compound 0.03 µM, partner dose 0.2 µM)
cell count (G361): 104% | cell count (IPC-298): 69.9% | cell count (IST-MEL1): 94.5% | cell count (LOXIMVI): 73.8% | cell count (MEL-HO): 89.3% | cell count (MeWo): 62.5% | cell count (RPMI7951): 62.7% | cell count (RVH-421): 56% | cell count (SkMel28): 52.6% | cell count (SkMel2): 79.1% | cell count (SkMel30): 96% | cell count (SkMel5): 61.9% | cell count (UACC257): 84.1% | cell count (UACC62): 71.8% | cell count (WM115): 37.9% | cell count (WM1716): 62.5% | cell count (WM1745): 43.3% | cell count (WM3526): 78.3%

N#CC[C@H](C1CCCC1)n1cc(-c2ncnc3[nH]ccc23)cn1 [ruxolitinib] + c1cc(-c2cnn3cc(-c4ccc(OCCN5CCCCC5)cc4)cnc23)ccn1 [Dorsomorphin] (first compound 5 µM, partner dose 2 µM)
cell count (G361): 54.8% | cell count (IPC-298): 81.5% | cell count (IST-MEL1): 87.2% | cell count (LOXIMVI): 98.8% | cell count (MEL-HO): 77.4% | cell count (MeWo): 65.5% | cell count (RPMI7951): 67.2% | cell count (RVH-421): 89.9% | cell count (SkMel28): 62.2% | cell count (SkMel30): 80.3% | cell count (SkMel5): 48.6% | cell count (UACC257): 69.7% | cell count (UACC62): 90.8% | cell count (WM115): 61.3% | cell count (WM1716): 57.7% | cell count (WM3526): 89.6%

Cc1cc(Nc2cc(N3CCN(C)CC3)nc(Sc3ccc(NC(=O)C4CC4)cc3)n2)n[nH]1 [Tozasertib] + O=c1cc(-c2cccc3c2Sc2ccccc2S3)oc(N2CCOCC2)c1 [KU55933] (first compound 0.03 µM, partner dose 5 µM)
cell count (G361): 64.5% | cell count (IPC-298): 83.6% | cell count (IST-MEL1): 92.3% | cell count (LB2518-MEL): 78.7% | cell count (LOXIMVI): 114% | cell count (MEL-HO): 78% | cell count (MZ2-MEL): 66.6% | cell count (MeWo): 75.5% | cell count (RPMI7951): 68.8% | cell count (RVH-421): 97% | cell count (SkMel28): 51% | cell count (SkMel2): 77.6% | cell count (SkMel30): 90.5% | cell count (SkMel5): 77.6% | cell count (UACC257): 98.4% | cell count (UACC62): 54.8% | cell count (WM115): 64.3% | cell count (WM1716): 75.1% | cell count (WM3526): 71.4%

N#CC[C@H](C1CCCC1)n1cc(-c2ncnc3[nH]ccc23)cn1 [ruxolitinib] + COc1cc2ncnc(Nc3ccc(Oc4ccccc4)cc3)c2cc1OC [SrcI1] (first compound 5 µM, partner dose 10 µM)
cell count (G361): 51% | cell count (IPC-298): 79.2% | cell count (IST-MEL1): 80.1% | cell count (LB2518-MEL): 108% | cell count (LOXIMVI): 62.9% | cell count (MEL-HO): 72.3% | cell count (MZ2-MEL): 82% | cell count (MeWo): 61.9% | cell count (RPMI7951): 45.7% | cell count (RVH-421): 94.3% | cell count (SkMel28): 75.4% | cell count (SkMel2): 95.6% | cell count (SkMel30): 80.4% | cell count (SkMel5): 48% | cell count (UACC257): 71.4% | cell count (UACC62): 81.3% | cell count (WM115): 74.9% | cell count (WM1716): 65.5% | cell count (WM3526): 68.7%

N#CC[C@H](C1CCCC1)n1cc(-c2ncnc3[nH]ccc23)cn1 [ruxolitinib] + CC1(C)NC(=O)N(c2ccc([N+](=O)[O-])c(C(F)(F)F)c2)C1=O [nilutamide] (first compound 5 µM, partner dose 5 µM)
cell count (G361): 80.2% | cell count (IPC-298): 92.3% | cell count (IST-MEL1): 79.1% | cell count (LOXIMVI): 73.7% | cell count (MEL-HO): 81.2% | cell count (MZ2-MEL): 93.5% | cell count (MeWo): 71.1% | cell count (RPMI7951): 64.9% | cell count (RVH-421): 62.2% | cell count (SkMel28): 88.7% | cell count (SkMel2): 87.5% | cell count (SkMel30): 108% | cell count (SkMel5): 59.6% | cell count (UACC257): 76.5% | cell count (UACC62): 78% | cell count (WM115): 69.2% | cell count (WM1716): 70.3% | cell count (WM1745): 58.9% | cell count (WM3526): 89.2%

Cc1cc(Nc2cc(N3CCN(C)CC3)nc(Sc3ccc(NC(=O)C4CC4)cc3)n2)n[nH]1 [Tozasertib] + Cc1cc(N2CCOCC2)cc2[nH]c(-c3c(NC[C@@H](O)c4cccc(Cl)c4)cc[nH]c3=O)nc12 [BMS536924] (first compound 0.03 µM, partner dose 1 µM)
cell count (G361): 77.2% | cell count (IPC-298): 95.3% | cell count (IST-MEL1): 67.1% | cell count (LOXIMVI): 98% | cell count (MEL-HO): 82.3% | cell count (MeWo): 50.9% | cell count (RPMI7951): 54.3% | cell count (RVH-421): 112% | cell count (SkMel28): 50.7% | cell count (SkMel30): 89.1% | cell count (SkMel5): 54.9% | cell count (UACC257): 97.2% | cell count (UACC62): 96.2% | cell count (WM115): 57.4% | cell count (WM1716): 80.7% | cell count (WM1745): 42.7% | cell count (WM3526): 62.3%

N#CC[C@H](C1CCCC1)n1cc(-c2ncnc3[nH]ccc23)cn1 [ruxolitinib] + O=C(/C=C/c1cccnc1)NCCCCC1CCN(C(=O)c2ccccc2)CC1 [FK866] (first compound 5 µM, partner dose 0.05 µM)
cell count (G361): 6.83% | cell count (IPC-298): 18.8% | cell count (IST-MEL1): 52.8% | cell count (LB2518-MEL): 42.5% | cell count (LOXIMVI): 50.6% | cell count (MEL-HO): 36% | cell count (MZ2-MEL): 27% | cell count (MeWo): 83.7% | cell count (RPMI7951): 93.7% | cell count (RVH-421): 16.1% | cell count (SkMel28): 69.7% | cell count (SkMel2): 7.35% | cell count (SkMel30): 112% | cell count (SkMel5): 70% | cell count (UACC257): 94.8% | cell count (UACC62): 108% | cell count (WM1716): 56% | cell count (WM1745): 83.5% | cell count (WM3526): 96.5%

N#CC[C@H](C1CCCC1)n1cc(-c2ncnc3[nH]ccc23)cn1 [ruxolitinib] + OCCn1cc(-c2cnc3nnn(Cc4ccc5ncccc5c4)c3n2)cn1 [PF04217903] (first compound 5 µM, partner dose 5 µM)
cell count (G361): 76.7% | cell count (IPC-298): 94.8% | cell count (IST-MEL1): 86.2% | cell count (LOXIMVI): 80.2% | cell count (MEL-HO): 74.4% | cell count (MeWo): 83.1% | cell count (RPMI7951): 63.7% | cell count (RVH-421): 95.2% | cell count (SkMel28): 127% | cell count (SkMel2): 94.3% | cell count (SkMel30): 97.5% | cell count (SkMel5): 87.8% | cell count (UACC257): 89.5% | cell count (UACC62): 81.9% | cell count (WM115): 104% | cell count (WM1716): 77.9% | cell count (WM1745): 75% | cell count (WM3526): 117%

N#CC[C@H](C1CCCC1)n1cc(-c2ncnc3[nH]ccc23)cn1 [ruxolitinib] + C=CCn1c(=O)c2cnc(Nc3ccc(N4CCN(C)CC4)cc3)nc2n1-c1cccc(C(C)(C)O)n1 [MK1775] (first compound 5 µM, partner dose 0.1 µM)
cell count (G361): 72.1% | cell count (IPC-298): 84.7% | cell count (IST-MEL1): 93.8% | cell count (LOXIMVI): 78.9% | cell count (MEL-HO): 71.9% | cell count (MeWo): 66.9% | cell count (RPMI7951): 51.1% | cell count (RVH-421): 64.9% | cell count (SkMel28): 57.2% | cell count (SkMel30): 95.4% | cell count (SkMel5): 60.1% | cell count (UACC257): 85.1% | cell count (UACC62): 96.4% | cell count (WM115): 65.1% | cell count (WM1716): 60.8% | cell count (WM1745): 40.6% | cell count (WM3526): 84.8%
